Measured values reported in the supplement of paper PMC4166925.
± gives the standard deviation of the averaged measurements. Whole data set: some 33,000 sequences, median “E-score (dimensionless, -0.5 to 0.5)” near -0.049, cut for the highest 2% near 0.37. This is one part of the list.

system: T1, PmTbr T-box DNA-binding domain (GST fusion); assay: PBM E-score of 8-mer (E-score (dimensionless, -0.5 to 0.5)); Tbr is Tbrain of the sea star Patiria miniata (Pm) or the sea urchin Strongylocentrotus purpuratus (Sp); higher = stronger binding preference; most listed sequences are background and not binding sites; conditions: the construct has about 5 more residues each side
T1 sequence: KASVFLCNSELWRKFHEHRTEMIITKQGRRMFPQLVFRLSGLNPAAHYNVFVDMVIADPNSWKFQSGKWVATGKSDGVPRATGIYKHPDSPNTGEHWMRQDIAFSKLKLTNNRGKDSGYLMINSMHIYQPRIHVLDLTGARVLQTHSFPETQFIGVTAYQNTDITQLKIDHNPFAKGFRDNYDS
In short: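 Universal Agilent oligonucleotide arrays, made double-stranded by primer extension, were incubated with 200 nM GST-fused Tbr T-box DNA-binding domain in PBS (pH 7.5). The protein was expressed in BL21 E. coli at 20 °C and purified by glutathione affinity chromatography. After scanning and quantification, the Universal PBM Analysis Suite assigned an enrichment E-score to each ungapped 8-mer, averaged over duplicate arrays.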

Sequence | PBM E-score of 8-mer
AAAGGGCT | -0.2 ± 0.024
ACGCGCGT | 0.279 ± 0.011
AGCCTCGG | -0.2 ± 0.0076
AGATGTCA | 0.0756 ± 0.01
ACGTACAC | 0.161 ± 0.093
TATTATAA | 0.0461 ± 0.053
CCAAAACG | -0.116 ± 0.027
CCACAGGA | -0.187 ± 0.016
AAGAGCCC | -0.245 ± 0.016
TACACCAA | 0.0439 ± 0.018
AGGCCACT | -0.135 ± 0.061
TCGCAGAA | 0.105 ± 0.07
AATAGTCT | -0.175 ± 0.032
ACAGTTTC | 0.143 ± 0.058
TACCAAGA | -0.122 ± 0.058
ATGTCGGC | -0.137 ± 0.042
GCAGTTGA | -0.00204 ± 0.027
CCCCAGCA | -0.0835 ± 0.13
AACTGCCC | -0.0599 ± 0.028
CACCCGAC | 0.26 ± 0.037
CTGGCGTC | 0.128 ± 0.01
ATTCCCTA | -0.181 ± 0.05

Sequence | PBM E-score of 8-mer
CCTTTTCA | 0.129 ± 0.045
AAGCGCCA | 0.0797 ± 0.027
AGTCCAAA | -0.0523 ± 0.057
ACTTCAAT | 0.0286 ± 0.051
ATTGTTGC | 0.093 ± 0.0053
AGCTACTC | -0.12 ± 0.048
GCTACATA | -0.0401 ± 0.1
CCACGACC | -0.1558 ± 0.0013
AGCCACTA | 0.0231 ± 0.014
CGGTCATC | -0.0674 ± 0.068
CACATTAC | 0.169 ± 0.021
AAAATGGG | -0.136 ± 0.027
AGCTCGGC | -0.0514 ± 0.02
CACTATAG | 0.132 ± 0.021
GAGAAGGA | -0.05879 ± 0.00027
ATATCCTA | 0.0612 ± 0.018
ACGTGCGG | 0.191 ± 0.05
CTCTTCTA | -0.215 ± 0.1
GGATTTAC | -0.0731 ± 0.089
CCCCACGG | -0.141 ± 0.02
GAATCTCA | -0.00438 ± 0.087
GAAGGTAA | 0.00393 ± 0.033

Sequence | PBM E-score of 8-mer
CTCAGATC | -0.0445 ± 0.0025
ACGCCGTC | 0.0297 ± 0.06
ACTAATGC | -0.0928 ± 0.014
AAGAACTG | -0.0374 ± 0.042
AGCCTGAT | -0.0175 ± 0.0064
ATACGCAC | 0.185 ± 0.035
ATCGTCCA | -0.209 ± 0.0024
GGCGTCGA | 0.2859 ± 0.001
CCGACCTC | -0.0831 ± 0.028
TGTGGGAA | 0.19 ± 0.044
CTCAGACA | 0.0672 ± 0.014
AATCATTG | 0.0313 ± 0.08
CTTACTGA | -0.15 ± 0.022
CGTTATGC | -0.182 ± 0.045
ACTTTGTA | -0.0604 ± 0.091
CGGCCTAC | -0.111 ± 0.013
ATCTACAC | 0.12 ± 0.071
CCCGATAG | -0.0866 ± 0.04
CAATTCCA | 0.0475 ± 0.027
CCCCTACC | -0.161 ± 0.015
ACAAAAAG | 0.0751 ± 0.056
ATGCTGAC | -0.219 ± 0.057

Sequence | PBM E-score of 8-mer
GAAGTAGA | -0.108 ± 0.043
ACAAGCAT | -0.0836 ± 0.09
AGCCACAG | -0.103 ± 0.04
CGATGCTC | -0.0504 ± 0.069
TCACTGCA | 0.158 ± 0.043
TAAACGGA | -0.174 ± 0.057
CGATACGA | 0.0264 ± 0.0098
ACTTTTAT | 0.0193 ± 0.1
ATCATTTG | -0.105 ± 0.02
GGGTAATA | -0.219 ± 0.068
AATAAGAT | -0.278 ± 0.029
TAGCGTGA | 0.342 ± 0.0046
TGGGTACA | -0.202 ± 0.034
CGGCTCGC | 0.0624 ± 0.063
CATTGAAG | -0.0382 ± 0.035
TTAGCGAA | 0.182 ± 0.041
CAGCAAAC | -0.0206 ± 0.022
GATATGTA | -0.163 ± 0.051
CCCTACTA | -0.11 ± 0.026
CCGACCAC | -0.0651 ± 0.017
AAATTACT | 0.0462 ± 0.059
CTGAATTA | -0.0432 ± 0.00054

Sequence | PBM E-score of 8-mer
CTGCTAGC | 0.115 ± 0.026
AGCGCAAT | 0.0713 ± 0.0017
AACTCTGA | -0.1366 ± 0.0004
AGATCTTG | 0.0816 ± 0.037
ACTAGGAC | -0.144 ± 0.05
GAAAGTGA | 0.321 ± 0.007
AACCAGAA | -0.0657 ± 0.0077
CTGCACTA | -0.0615 ± 0.0083
AGGCATAA | -0.0918 ± 0.035
CAATATAG | 0.203 ± 0.033
CAGAAAGC | -0.192 ± 0.014
GGTTTAAA | 0.0187 ± 0.0062
ACGTCGAA | -0.235 ± 0.056
AAGTCCGT | -0.107 ± 0.0046
GTGCACAA | 0.0769 ± 0.0029
ATGGTCGG | -0.337 ± 0.025
AGTACCGC | -0.0413 ± 0.045
ATTGTCTG | -0.169 ± 0.009
CTGGGGAA | -0.0513 ± 0.068
TAATTGTA | -0.282 ± 0.023
AGAACCTC | -0.197 ± 0.047
